The values that follow come from ChEMBL document CHEMBL4888484, “Replenishing the malaria drug discovery pipeline: Screening and hit evaluation of the MMV Hit Generation Library 1 (HGL1) against asexual blood stage Plasmodium falciparum ,using a nano luciferase reporter read-out” (2022).

In all, about 150,000 compounds went through this assay and about 540 (0.36%) showed an effect of 50% or more. The list shows a part of the results.

For the experiment, the system named is Plasmodium falciparum. The experiment is described as follows: Primary screen in NF54 nanoGlo assay, in single point, at 2uM, 72h; a lower Z score goes with more inhibition. It is filed as functional, Erythrocyte. As to conditions: timepoint 72 hour.
As a reminder, the % Inhibition is the change of the read-out against control, counted positive when it falls. Regarding `Oc1cccc(CN2CCC3(CC2)C[C@H](c2ccccc2)CN(C2CC2)C3)c1`, the “% Inhibition” value is 76% and the Z score is recorded as -2.68.

As for `O=C(c1ccc2nc(-c3ccccc3)cn2c1)N1CCCCC1`, the “% Inhibition” value is -1% and the Z score is given as 0.12.

For the compound `CCc1nn(C)cc1CNc1cc(Br)cc(C)c1NC(=O)OC(C)(C)C`, the “% Inhibition” value was 2% and the Z score was -0.21.

For `Cc1ccc(-c2nc(NCc3ccco3)n(C(=O)CCc3ccccc3)n2)cc1`, the “% Inhibition” value is on record as -14% and the Z score is 1.54.

As for `O=C(NC(Cc1ccccc1)[C@H]1C[C@H](O)C1)c1cnc[nH]1` (some centres undefined), the “% Inhibition” value was -12% and the Z score is recorded as 1.63.

With `N=C(NC(=O)c1ccccc1)Nc1nc2ccccc2s1`, the “% Inhibition” value was -11% and the Z score stood at 0.96.

`Brc1ccc(-c2ccc(Oc3nccn4nnnc34)cc2)cc1`: the “% Inhibition” value was -10% and the Z score was found to be 1.12.

Regarding `C[C@H]1CN(C)CCN1CCc1ccc2c(c1)CCO2`, the “% Inhibition” value is 3% and the Z score is -0.33.

Turning to `Cc1ccc(CNC(=O)c2ccc3c(c2)C(=O)N(C[C@H]2CCCO2)C3=O)s1`, the “% Inhibition” value is -5% and the Z score was determined as 0.72.

For `COc1ccc2c(c1)N(S(=O)(=O)CCC1CCC1)CCC2`, the “% Inhibition” value is recorded as -11% and the Z score is listed as 1.73.

With `O=C(Nc1nc2cccc(Cl)c2o1)c1cccc(F)c1`, the “% Inhibition” value was determined as 89% and the Z score is on record as -8.47.

With `COCc1nc(C)c(CNC(=O)c2cc(C3CC3)no2)s1`, the “% Inhibition” value came to 15% and the Z score was -2.

For `CN(CCN1CCOC(C2CCCO2)C1)Cc1ccc(F)cc1` (centres undefined), the “% Inhibition” value was -4% and the Z score stood at 0.46.

In the case of `COc1ccccc1N(C)CC(=O)N1CCC(c2ccccc2)=N1`, the “% Inhibition” value turned out to be 4% and the Z score was -0.47.

As for `O=S(=O)(NCCn1c(-c2ccccc2)nc2cccnc21)c1ccccc1Cl`, the “% Inhibition” value was -8% and the Z score is listed as 1.07.

For `CN1C[C@H](NC(=O)c2ccc(F)cc2F)C[C@H]1CO`, the “% Inhibition” value is reported as -2% and the Z score is 0.39.

Regarding `COc1cccc([C@@H]2CCN2C(=O)NCC2(Cn3ccnc3C)CC2)c1`, the “% Inhibition” value came to 16% and the Z score is -2.14.

On to `O=C(NC[C@H]1O[C@@H](CO)[C@@H](O)[C@H]1N1CCN(c2cccc(C(F)(F)F)c2)CC1)Nc1ccc(OC(F)(F)F)cc1`, for which the “% Inhibition” value is 18% and the Z score was -2.06.

For the compound `Cc1ccc2c(c1)CCCN2C(=O)CCc1c(C)noc1C`, the “% Inhibition” value was -7% and the Z score worked out at 1.01.

On to `CCOC(=O)[C@H](CO)Nc1ncnc2onc(C)c12`, for which the “% Inhibition” value turned out to be 1% and the Z score was -0.25.

Regarding `Cc1ccc(-c2cccc(C(=O)NCc3cc4n(n3)CCCNC4)c2)c(C)n1`, the “% Inhibition” value is recorded as -18% and the Z score is given as 1.6.

Take `CN(C)CCNC(=O)CCc1nnc2c3cc(-c4ccc(Cl)cc4)nn3ccn12`: the “% Inhibition” value was 2% and the Z score is reported as -0.22.

As to `Cc1cc(C(=O)NCCCn2ccc3cccnc32)no1`, the “% Inhibition” value is -15% and the Z score is on record as 2.26.

On to `C#CCNC(=O)c1ccc(C(N)=O)nc1`, for which the “% Inhibition” value is given as -37% and the Z score is given as 4.31.

With `Nc1c2c(-c3ccccc3)nc(NCc3ccccn3)nc2nn1Cc1ccccc1`, the “% Inhibition” value is recorded as 2% and the Z score was -0.21.

For `CC(=O)N1CCC[C@](c2nnnn2CCC(C)C)(N2CCC(Cc3ccccc3)CC2)C1`, the “% Inhibition” value was 2% and the Z score is on record as -0.43.

Consider `CCCN1CCCn2nc(CNc3nc(C)cc(C)c3C#N)cc2C1`, for which the “% Inhibition” value was -1% and the Z score is given as 0.09.

Regarding `O=C(Cc1cnc[nH]c1=O)N1CC[C@@]2(CCCN(C3CCCC3)C2=O)C1`, the “% Inhibition” value worked out at 1% and the Z score was -0.17.

`Cn1cc([C@H]2CCCN(C(=O)Nc3cccs3)C2)cn1`: the “% Inhibition” value is reported as -2% and the Z score is given as 0.31.

As to `CCCc1nnc(NC(=O)c2sc(COc3ccc(C)c(C)c3)nc2C)s1`, the “% Inhibition” value is given as -4% and the Z score turned out to be 0.73.

Consider `CCC(=O)N1CCCN(C2=NS(=O)(=O)C(c3ccc(C)cc3)=C2C)CC1`, for which the “% Inhibition” value is -9% and the Z score came out at 1.44.

Take `O=C(NC1CCOCC1)c1ccc(Br)cn1`: the “% Inhibition” value is on record as -14% and the Z score is recorded as 2.

Turning to `Cc1cccc(CCC(=O)N2CCN[C@H](C)C2)c1`, the “% Inhibition” value is -7% and the Z score is reported as 0.96.

As for `CCN(C)C(=O)[C@H](C1CCCC1)N1CCN(C(=O)c2cccc(F)c2)CC1`, the “% Inhibition” value was -2% and the Z score is given as 0.26.

With `CC1CCCC(C)N1C(=O)c1cc2c([nH]c1=O)CCCC2=O` (centres undefined), the “% Inhibition” value is recorded as 1% and the Z score was -0.13.

Turning to `O=C(NC1CCC(N2C(=O)CCC2=O)CC1)C1CC1C1CCCCC1` (centres undefined), the “% Inhibition” value was -7% and the Z score was found to be 0.72.

Consider `CCCCN(CCO)CC(=O)NC1CCCC1`, for which the “% Inhibition” value is reported as -8% and the Z score is 1.04.

For `O=C(NC1CCN(c2ccccc2C(=O)N2CCOCC2)CC1)c1ccco1`, the “% Inhibition” value is reported as -7% and the Z score stood at 1.29.

For `C[C@H]1CCCCN1c1ncnc2onc(-c3cc(F)cc(F)c3)c12`, the “% Inhibition” value came out at 0% and the Z score is given as -0.02.

`O=C(CN(C(=O)C1CC2CCC1O2)C1CC1)NC1CC1` (centres undefined): the “% Inhibition” value came out at 3% and the Z score is listed as -0.42.

Take `Cc1cc(F)ccc1N1CCC[C@H](NC(=O)c2csnc2C)C1=O`: the “% Inhibition” value is 39% and the Z score is -5.25.

`N#CCCN(CC1CC1)S(=O)(=O)Cc1ccon1`: the “% Inhibition” value was -1% and the Z score stood at 0.12.
